Data from paper PMC10516938, “Conformational dynamics of cohesin/Scc2 loading complex are regulated by Smc3 acetylation and ATP binding” (Nature Communications, 2023).
These are yes or no findings as the source states them, for the method shown. In cells and extracts the contact can be indirect. Some entries that bind do so weakly or less than the wild type.

Tests used:
[1] = target: T1, Smc3 Q67C (S. cerevisiae) (UniProt P47037); experiment: cross-linking; in vivo BMOE cross-link of cysteine pairs in exponentially grown yeast cells (on ice, 6 min); Scc1-PK immunoprecipitated, western blot
T1 sequence: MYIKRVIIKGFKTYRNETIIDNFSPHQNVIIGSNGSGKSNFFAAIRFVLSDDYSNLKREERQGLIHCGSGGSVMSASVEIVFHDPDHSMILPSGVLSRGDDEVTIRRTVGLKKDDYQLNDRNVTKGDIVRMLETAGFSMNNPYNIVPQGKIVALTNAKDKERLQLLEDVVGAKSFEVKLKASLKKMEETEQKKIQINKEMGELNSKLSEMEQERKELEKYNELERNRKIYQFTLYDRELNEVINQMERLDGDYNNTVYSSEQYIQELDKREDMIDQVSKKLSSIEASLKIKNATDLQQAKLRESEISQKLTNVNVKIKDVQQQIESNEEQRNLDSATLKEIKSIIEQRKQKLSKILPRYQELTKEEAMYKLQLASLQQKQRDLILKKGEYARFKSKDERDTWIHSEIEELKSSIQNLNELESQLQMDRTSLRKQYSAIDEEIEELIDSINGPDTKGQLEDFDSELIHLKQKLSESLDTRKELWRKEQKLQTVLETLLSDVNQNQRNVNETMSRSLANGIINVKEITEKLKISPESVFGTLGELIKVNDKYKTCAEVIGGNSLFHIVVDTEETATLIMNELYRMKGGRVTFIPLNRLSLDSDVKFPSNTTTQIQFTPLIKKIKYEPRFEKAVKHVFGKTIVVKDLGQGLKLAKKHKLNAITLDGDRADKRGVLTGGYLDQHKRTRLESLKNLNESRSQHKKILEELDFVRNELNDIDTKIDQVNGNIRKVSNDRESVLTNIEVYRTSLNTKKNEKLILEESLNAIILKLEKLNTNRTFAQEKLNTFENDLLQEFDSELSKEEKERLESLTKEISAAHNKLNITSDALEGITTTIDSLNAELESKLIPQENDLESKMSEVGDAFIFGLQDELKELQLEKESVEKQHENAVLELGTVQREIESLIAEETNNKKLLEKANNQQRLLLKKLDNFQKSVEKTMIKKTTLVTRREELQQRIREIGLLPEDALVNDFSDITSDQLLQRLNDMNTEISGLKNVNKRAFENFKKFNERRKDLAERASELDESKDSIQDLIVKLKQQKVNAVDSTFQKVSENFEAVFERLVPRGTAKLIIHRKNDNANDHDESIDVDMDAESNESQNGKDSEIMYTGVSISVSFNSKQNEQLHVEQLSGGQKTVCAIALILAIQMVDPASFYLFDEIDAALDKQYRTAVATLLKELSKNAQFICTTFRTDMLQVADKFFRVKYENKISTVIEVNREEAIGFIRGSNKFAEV

[2] = target: T2, Smc1 E1102C (S. cerevisiae) (UniProt P32908); experiment: as above
T2 sequence: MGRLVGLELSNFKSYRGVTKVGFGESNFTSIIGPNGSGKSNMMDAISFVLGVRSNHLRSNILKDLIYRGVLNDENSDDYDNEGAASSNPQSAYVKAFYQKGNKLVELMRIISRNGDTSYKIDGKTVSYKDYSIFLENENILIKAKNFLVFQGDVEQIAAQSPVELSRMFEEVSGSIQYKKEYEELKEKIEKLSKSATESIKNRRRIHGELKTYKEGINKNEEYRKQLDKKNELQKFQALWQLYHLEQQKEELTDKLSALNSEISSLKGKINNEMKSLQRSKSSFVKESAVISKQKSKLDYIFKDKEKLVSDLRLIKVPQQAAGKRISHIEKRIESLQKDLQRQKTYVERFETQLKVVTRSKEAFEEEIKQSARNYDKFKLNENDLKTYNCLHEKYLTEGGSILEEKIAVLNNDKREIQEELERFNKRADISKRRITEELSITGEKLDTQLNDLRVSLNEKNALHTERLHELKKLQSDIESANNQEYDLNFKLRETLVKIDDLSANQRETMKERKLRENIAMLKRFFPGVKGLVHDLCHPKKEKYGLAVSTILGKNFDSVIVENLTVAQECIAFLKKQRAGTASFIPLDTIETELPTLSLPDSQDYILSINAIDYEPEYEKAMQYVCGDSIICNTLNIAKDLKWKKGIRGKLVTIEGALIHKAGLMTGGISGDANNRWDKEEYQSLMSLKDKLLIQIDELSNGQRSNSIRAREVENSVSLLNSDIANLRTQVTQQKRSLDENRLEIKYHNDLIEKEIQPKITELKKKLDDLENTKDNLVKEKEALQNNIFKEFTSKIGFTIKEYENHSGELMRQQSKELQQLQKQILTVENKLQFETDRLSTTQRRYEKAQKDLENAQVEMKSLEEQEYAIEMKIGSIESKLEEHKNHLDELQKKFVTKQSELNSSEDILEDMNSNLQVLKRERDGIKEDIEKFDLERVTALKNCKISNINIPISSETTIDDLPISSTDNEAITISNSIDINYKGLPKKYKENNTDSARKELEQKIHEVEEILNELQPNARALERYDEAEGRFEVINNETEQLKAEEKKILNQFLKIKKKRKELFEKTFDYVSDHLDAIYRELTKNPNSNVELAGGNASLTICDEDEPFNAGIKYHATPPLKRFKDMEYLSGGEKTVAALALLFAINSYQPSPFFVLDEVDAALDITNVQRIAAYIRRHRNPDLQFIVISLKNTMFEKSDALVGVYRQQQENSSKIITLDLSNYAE

Scc1-PK (S. cerevisiae) = target: T3, Scc1-PK (S. cerevisiae) (UniProt Q12158); experiment: co-IP; Scc1-PK immunoprecipitated with anti-PK from whole-cell extracts of cross-linker-treated yeast cells (exponentially grown or late G1 arrested); co-precipitated Smc3-HA, Smc1-Myc or Scc2-FLAG detected by western blot
T3 sequence: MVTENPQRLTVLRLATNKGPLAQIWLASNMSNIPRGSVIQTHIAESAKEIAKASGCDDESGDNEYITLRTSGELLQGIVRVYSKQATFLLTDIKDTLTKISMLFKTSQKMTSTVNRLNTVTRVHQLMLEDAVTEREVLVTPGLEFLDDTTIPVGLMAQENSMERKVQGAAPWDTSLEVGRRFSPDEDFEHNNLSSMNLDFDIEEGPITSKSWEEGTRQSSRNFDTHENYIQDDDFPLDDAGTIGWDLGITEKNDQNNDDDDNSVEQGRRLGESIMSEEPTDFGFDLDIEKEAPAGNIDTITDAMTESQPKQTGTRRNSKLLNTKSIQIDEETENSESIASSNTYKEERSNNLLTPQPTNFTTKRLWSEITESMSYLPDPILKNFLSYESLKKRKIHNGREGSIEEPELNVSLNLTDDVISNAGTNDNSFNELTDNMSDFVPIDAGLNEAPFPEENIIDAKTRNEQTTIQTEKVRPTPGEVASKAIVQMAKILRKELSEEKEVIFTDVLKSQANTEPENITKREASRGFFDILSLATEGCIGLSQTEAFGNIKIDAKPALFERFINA

Measured: binding

B1: Scc2 T1175C T1281C (protein, UniProt Q04002 1-1493)
chain: MSYPGKDKNIPGRIIEALEDLPLSYLVPKDGLAALVNAPMRVSLPFDKTIFTSADDGRDVNINVLGTANSTTSSIKNEAEKERLVFKRPSNFTSSANSVDYVPTNFLEGLSPLAQSVLSTHKGLNDSINIEKKSEIVSRPEAKHKLESVTSNAGNLSFNDNSSNKKTKTSTGVTMTQANLAEQYLNDLKNILDIVGFDQNSAEIGNIEYWLQLPNKKFVLTTNCLTKLQMTIKNITDNPQLSNSIEITWLLRLLDVMVCNIKFSKSSLKMGLDDSMLRYIALLSTIVLFNIFLLGKNDSNLHRESYIMEPVNFLSDLIESLKILTIEYGSLKIEFDTFQEALELLPKYIRNGPFLDDNVTAKLVYIFSDLLMNNDIEATTNIQFQSFWDNVKRISSDILVSLFGSFDQQRGFIIEELLSHIEKLPTKRIQKKLRKVGNQNIYITDFTFTLMSMLENINCYSFCNQMKDIAPENIDLLKNEYKKQEEFLFNIVEHINDTILERFFKNPSALRYVIDNFVQDLLLLISSPQWPVTEKILSSLLKRLLSVYSPSMQVSANIETICLQLIGNIGSTIFDIKCSTRDHEDNNLIKMINYPETLPHFFKSFEECIAYNETIKCRRSATRFLWNLRLGTILILEEYTKDAKEQIITVDNELKKILEQIKDGGLGPELENREADFSTIKLDYFSILHAFELLNLYDPYLKLILSLLAKDKIKLRSTAIKCLSMLASKDKVILSNPMVKETIHRRLNDSSASVKDAILDLVSINSSYFEFYQQINNNYNDDSIMVRKHVLRINEKMYDETNDIVTKVYVIARILMKIEDEEDNIIDMARLILLNRWILKVHEVLDQPEKLKEISSSVLLVMSRVAIMNEKCSQLFDLFLNFYLLNKEAHSKEAYDKITHVLTILTDFLVQKIVELNSDDTNEKNSIVDKQNFLNLLAKFADSTVSFLTKDHITALYPYMVSDEKSDFHYYILQVFRCTFEKLANFKQKFLYDLETTLLSRLPKMNVREIDEAMPLIWSVATHRHDTARVAKACSSCLSHLHPYINKANNEEAAIVVDGKLQRLIYLSTGFARFCFPKPSNDKIAFLQEGETLYEHITKCLLVLSKDKITHVIRRVAVKNLTKLCGNHPKLFNSRHVLHLLDKEFQSDQLDIKLVILESLYDLFLLEERKSVRNCGVNSTLSSNSILKKKLLKTNRVEFANDGVCSALATRFLDNILQLCLLRDLKNSLVAIRLLKLILKFGYTNPSHSIPTVIALFASTSQYIRHVAYELLEDLFEKYECLVFSSLSRGVTKAIHYSIHTDEKYYYKHDHFLSLLEKLCGTGKKNGPKFFKVLKRIMQSYLDDITDLTSTNSSVQKSIFVLCTNISNITFVSQYDLVSLLKTIDLTTDRLKEVIMDEIGDNVSSLSVSEEKLSGIILIQLSLQDLGTYLLHLYGLRDDVLLLDIVEESELKNKQLPAKKPDISKFSAQLENIEQYSSNGKLLTYFRKHVKDT
binds: all assays above
